Some of the results follow.

The target in this assay is T1, OsWOX13 (Oryza sativa, UniProt Q5QMM3 1-267).
T1 sequence: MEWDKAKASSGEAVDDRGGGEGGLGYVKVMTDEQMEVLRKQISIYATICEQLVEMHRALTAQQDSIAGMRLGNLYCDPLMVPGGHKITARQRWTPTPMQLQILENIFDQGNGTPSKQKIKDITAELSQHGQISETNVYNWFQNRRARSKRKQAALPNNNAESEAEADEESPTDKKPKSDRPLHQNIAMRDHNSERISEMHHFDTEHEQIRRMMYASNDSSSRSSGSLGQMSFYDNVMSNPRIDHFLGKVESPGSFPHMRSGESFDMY
Nature of the assay: protein-binding microarray (RPBM); PBS, 2% BSA, 51.3 ng/ul salmon testes DNA, 50 uM zinc acetate, 200 nM TF, 25 C, 1 h; high values mean tight binding. The following applies: protein: recombinant; tags: N-terminal polyhistidine and DsRed monomer fusion (pET32a); label: CyDye5-dUTP incorporated in the synthesized complementary strand; 3' TTTTT single-stranded linker to array surface; dsDNA, one strand shown. The gist of the method:
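Ni–NTA purification followed expression in E. coli BL21-CodonPlus of transcription factors fused N-terminally to a polyhistidine tag and DsRed. At 200 nM in PBS with 2% BSA, salmon testes DNA and 50 µM zinc acetate, the protein was incubated for 1 h at 25 °C with a custom Agilent array that had been primer-extended with Cy5-dUTP and blocked with 2% BSA. After washing, the array was read on an Axon 4000B scanner. The binding signal is per-feature fluorescence intensity in arbitrary units.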
Consider “GGGCACATCATTTTGATTGGACTATTTAGCCTAGTTTGCACGGAGTCACCTAGTGCAG”, for which the binding signal is 14300 fluorescence intensity (a.u.).

Take “ATTTGTATCAATCATATATTGATGAGATATTGCACGAGTTCGGAGTCACCTAGTGCAG”: the binding signal was 32100 fluorescence intensity (a.u.). In the case of “CGGTTTATAAGTGATTATATTTCAGCTCCCATACAACCTACGGAGTCACCTAGTGCAG” it was 3520 fluorescence intensity (a.u.); in that of “GAGACGTAAATTAGACTTAGTTAACCATATAAGACAAATGCGGAGTCACCTAGTGCAG”, 21900 fluorescence intensity (a.u.); in that of “ATTAATTCATGATTAGCCTACATAATACTACAGTAAGCATCGGAGTCACCTAGTGCAG”, 29200 fluorescence intensity (a.u.). For the sequence “GTCCCAATGATTGCCAGCCCCGGTGGACGGGTGTAGAAGCCGGAGTCACCTAGTGCAG”, the binding signal was 38100 fluorescence intensity (a.u.). Turning to “TCAACAAATTATTAGTTTGTAGGGTGTTTTCAATCGTGAACGGAGTCACCTAGTGCAG”, the binding signal is 6200 fluorescence intensity (a.u.). With “AATTTAACATATAAATTTCAAATCGATTATGAATGGATATCGGAGTCACCTAGTGCAG”, the binding signal was 7690 fluorescence intensity (a.u.). As for “TATATTTAATTATTGATTTGATGTAACCAATTTAGTATTACGGAGTCACCTAGTGCAG”, the figure is 23400 fluorescence intensity (a.u.); as for “GCTTTGAGTTAATTAGGCACTAATCGGCACAATTTTATAGCGGAGTCACCTAGTGCAG”, 7480 fluorescence intensity (a.u.).

Turning to “ATTAACTATGATTTTGCAGCATGCCATCATTTCTCTTTCTCGGAGTCACCTAGTGCAG”, the binding signal is 9570 fluorescence intensity (a.u.).

Take “CAGATGACATTGACATTGATACTAGTGGGAATTTCCCCTGCGGAGTCACCTAGTGCAG”: the binding signal is 4060 fluorescence intensity (a.u.).

For the sequence “GATTGATTGGGACGCTGTCCAAGATAAATTGTGGACAGACCGGAGTCACCTAGTGCAG”, the binding signal is 34300 fluorescence intensity (a.u.).

On to “GAGAATAATAGTCAATCTGTAGCTCAGTGCCCTTTTCTTCCGGAGTCACCTAGTGCAG”, for which the binding signal was 10800 fluorescence intensity (a.u.). In the case of “GTACCTGATTAGTACTAAGTGATTAGTTAGTTTAGACACGCGGAGTCACCTAGTGCAG” it was 31800 fluorescence intensity (a.u.); in that of “AGACTGCTGAAGTGAATGATTGATGTTGTCCCATAAGCAACGGAGTCACCTAGTGCAG”, 8210 fluorescence intensity (a.u.); in that of “AACTCATCATCTAATTTGATGTCCTAAAGCAAATTTTGTGCGGAGTCACCTAGTGCAG”, 9420 fluorescence intensity (a.u.). In the case of “CACGTGACTGGGCCGTGCGGTGAATTTTACATTTTACCCCCGGAGTCACCTAGTGCAG” it was 3970 fluorescence intensity (a.u.); in that of “ACAACTAAATTAGTTTCATCTAATCTTTAAACGTTGGTCTCGGAGTCACCTAGTGCAG”, 23800 fluorescence intensity (a.u.); in that of “TGTAAATATATTATGATTGTAGTATAACTTATATAGTATTCGGAGTCACCTAGTGCAG”, 10900 fluorescence intensity (a.u.). In the case of “ATTTAATTATCAGCTACCATGCCTAGCTTAGCTAGCTGTTCGGAGTCACCTAGTGCAG” it was 19900 fluorescence intensity (a.u.).

As to “AGTCTCCCAATCCCAACTGATTGTTCAGATAGGTCAGTTACGGAGTCACCTAGTGCAG”, the binding signal was 4160 fluorescence intensity (a.u.).

Turning to “CTATTATATTGACTGAGCCCATCATAGGCCGAGAAGGCAACGGAGTCACCTAGTGCAG”, the binding signal is 8890 fluorescence intensity (a.u.).

“TAAAGTTGATGAAAATAATGTTAATTACCAGGTTCATGTTCGGAGTCACCTAGTGCAG”: the binding signal was 9040 fluorescence intensity (a.u.).

As to “AAGACGGATGATCAAAATTAGACACGAAAACTTATGGATGCGGAGTCACCTAGTGCAG”, the binding signal was 6280 fluorescence intensity (a.u.). As for “TTAAAATTTATTTCATTATATTTAGAAAGTTATGCAAAGTCGGAGTCACCTAGTGCAG”, the figure is 5160 fluorescence intensity (a.u.); as for “ATTTAATAGTATTAAACGTAGATTACTGATAAAACCTATTCGGAGTCACCTAGTGCAG”, 4260 fluorescence intensity (a.u.).

As for “AGGTGGAGGTGGGGAGGATGCGGGAGAGGGAGGTGATGATCGGAGTCACCTAGTGCAG”, the binding signal was 5400 fluorescence intensity (a.u.). As for “ACTTACTGATACTAATTTGCTTCTTGGTGGGATAATGGGACGGAGTCACCTAGTGCAG”, the figure is 19900 fluorescence intensity (a.u.). Take “TTTAGGTTGTCAATGCTAATCAACAGTGTATTGATACACACGGAGTCACCTAGTGCAG”: the binding signal was 7210 fluorescence intensity (a.u.). As for “GCACGTGATTAAATTTATACTTTAAAACATACTACGTTCTCGGAGTCACCTAGTGCAG”, the figure is 30200 fluorescence intensity (a.u.). Regarding “GGTGTGACCATATATTAATTATGTAATACTCCCTCCATATCGGAGTCACCTAGTGCAG”, the binding signal was 5070 fluorescence intensity (a.u.). In the case of “CATGCCATTTTCAGAGATTGATTAATCTGTTGTTTATGTCCGGAGTCACCTAGTGCAG” it was 16500 fluorescence intensity (a.u.); in that of “TGTGCTAACTGTTAGTGGTGACTGGTGACAAGTACATCACCGGAGTCACCTAGTGCAG”, 5650 fluorescence intensity (a.u.); in that of “GAAATGATGGAAAATAGATGTCTTTTAGAGAGAAGAATCTCGGAGTCACCTAGTGCAG”, 7560 fluorescence intensity (a.u.).

For “TTCAGTAATTTGCTATACTCTTTAGAAATATTATTACATGCGGAGTCACCTAGTGCAG”, the binding signal is 9000 fluorescence intensity (a.u.). Turning to “ATAAAACATAATGATCTATTAGAACATGATTATTTAAGCACGGAGTCACCTAGTGCAG”, the binding signal was 3780 fluorescence intensity (a.u.).

In the case of “AATTACGTGATGATTTGACAATGTGATGCTACAGTAAATACGGAGTCACCTAGTGCAG”, the binding signal was 4800 fluorescence intensity (a.u.). As for “AATGTTAATTAGGAACTATTTATAATAAACATTAATAGCACGGAGTCACCTAGTGCAG”, the figure is 14000 fluorescence intensity (a.u.). On to “GTTGCTAATTGACAATCAGCCCCTTCCAGGGCCACTACATCGGAGTCACCTAGTGCAG”, for which the binding signal was 50200 fluorescence intensity (a.u.).

In the case of “ATAAACAGCTTAGTTATCTTTACTGTTAATACGGCTCTTTCGGAGTCACCTAGTGCAG”, the binding signal is 3980 fluorescence intensity (a.u.). In the case of “CTTTTAGATGTGGCAATTAACTATTTGCCACTGGACCACCCGGAGTCACCTAGTGCAG” it was 10200 fluorescence intensity (a.u.).
